Measurements published in PubChem BioAssay AID652104 (National Center for Advancing Translational Sciences (NCATS), 2013).
The whole screen tested about 410,000 compounds, of which about 7,200 (1.8%) were called active. Inconclusive means that the source gave no clear call. Such entries were picked first, then a sample of the others. Calls come from the whole dose curve; as a rule, active = well fitted activation curve with a large enough effect; inconclusive = small, poorly fitted or top-dose-only effect, or another doubt; inactive = no such curve, though single readings can be large or run the other way. Potencies of inconclusive entries are left out as doubtful fits.

Assay: qHTS of TDP-43 Inhibitors; note: nearly all actives have a fitted effect of over 50% in size; for growth rescue (activation): % of control where 0% means no effect
Settings: TDP-43 expressing yeast growth rescue, BacTiter-Glo, 24 h; growth rescue (activation): at 46.1 µM (top of the series) unless noted
In short: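 Cell-based yeast growth screen: TDP-43 expression induced in galactose, inoculum OD600=0.02 after raffinose pregrowth to mid-log. Read-out BacTiter-Glo luminescence at 24 hr, 30 deg C; inhibition of toxicity seen as signal increase.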
Potency is the fitted concentration of half-maximal effect; tags give direction and shape of the fitted curve.

Compound | Potency | growth rescue (activation)
Cc1c(NC(=O)Nc2ccc(Br)cc2F)sc2nc3n(c(=O)c12)CCC(C)CC3 (stereo not given) | inconclusive [activator, full curve, poor fit] | 
CCOC(=O)c1c(S(=O)(=O)NCC(=O)N2CCN(c3ccccc3)CC2)c(C)n(C)c1C | inactive | 
COc1ccccc1CNC(=O)CCn1c(=O)c2ccccc2n(CC(=O)Nc2ccc(C)cc2Cl)c1=O |  | inactive: -19.9%
CCc1ccc(-c2cc(C)no2)cc1S(=O)(=O)N1CC(=O)Nc2ccccc21 |  | inactive: -0.11%
COCn1c(-c2ccc(OC)c(OC)c2)nc2ccccc21 | inconclusive [activator, partial curve] | 
COC(=O)Nc1sc2nc(C)cc(C)c2c1-n1cccc1 | inconclusive [activator, single point] | 
Cc1ccnc(NC(=O)CCCc2ccccc2)c1 | inconclusive [activator, full curve, poor fit] | 
O/N=C/c1cc(Br)ccc1OCc1cccc(F)c1 | inconclusive [activator, partial curve, poor fit] | 
COc1cccc(-c2ccc3c(N)c(C(=O)NC4CC4)sc3n2)c1 | inconclusive [activator, single point] | 
Cc1ccc(NC2(C#N)CCCC2)cc1 |  | inactive: -19%
Cc1ccc(N2C(=O)CSC2c2ccc3c(c2)OCO3)cc1 (stereo not given) | inconclusive [activator, partial curve] | 
Cc1ccc(S(=O)(=O)Nc2ccc(NC(=O)c3cccnc3)cc2)cc1 | inconclusive [activator, single point] | 
COC(=O)C1=C(C)Nc2nc(-c3ccccc3)nn2C1c1ccc(C)o1 (stereo not given) |  | inactive: 0%
O=C(Cc1ccccc1)OCC(=O)c1cccc([N+](=O)[O-])c1 | inconclusive [activator, partial curve] | 
CC(=O)c1cccc(Nc2nc(-c3sc(C)nc3C)cs2)c1 | active: 11.2 µM | 
CC(C)CCn1c(COc2ccccc2)nn(CCC#N)c1=S | inconclusive [activator, partial curve] | 
CCCCCC(=O)N1CCCC(c2nc(-c3ccc(OC)cc3)no2)C1 (stereo not given) | inconclusive [activator, single point] | 
Cc1ccc(-c2nc3cnccn3c2Nc2c(C)cccc2C)o1 | inconclusive [activator, partial curve] | 
CCCSCCCNC(=O)C1CCCN(c2nn3cc(-c4ccc(OC)cc4)nc3s2)C1 (stereo not given) | inconclusive [activator, single point] | 
O=C(Cn1c(=O)oc2cc(Cl)ccc21)Nc1cccc(C(F)(F)F)c1 | inconclusive [activator, partial curve, poor fit] | 
Clc1ccc2nc3ccccc3cc2c1 | inconclusive [activator, partial curve] | 
CC(C)(C)c1ccc(S(=O)(=O)NC(=O)C2(C)CCN2C(=O)Cc2ccccc2Cl)cc1 (stereo not given) | inconclusive [activator, partial curve] | 
CCC(Cc1ccccc1)NC(=O)CCc1ccccc1 (stereo not given) | inconclusive [activator, single point] | 
C=CCn1c(CSc2nc3ccccc3s2)n[nH]c1=S | inconclusive [activator, partial curve, poor fit] | 

Compound | Potency | growth rescue (activation)
Nc1c(Cl)cc(C2=NCCn3nc4cc(C(F)(F)F)ccc4c32)cc1Cl | inconclusive [activator, single point] | 
N/C(=N\OC(=O)C1CCCCC1)c1cccc(Br)c1 |  | inactive: -45.2%
CC(=O)Nc1c(C)nn(-c2ccccc2)c1N1CCC(C(=O)Nc2ccc(Cl)cc2C)CC1 |  | inactive: 18.8%
COc1ccc(-c2csc(C)n2)cc1OC | inconclusive [activator, single point] | 
CCNC(=O)C1=C(O)c2sccc2N(C)S1(=O)=O | active: 8.91 µM | 
OC[C@@H]1[C@@H](c2ccccc2)C(c2ccccc2)=NN1c1ccccc1 | active: 12.6 µM | 
COc1ccc(OC)c(NC(=O)CSc2nccn2-c2cc(C)cc(C)c2)c1 | inconclusive [activator, single point] | 
COCCNc1oc(-c2ccc(Cl)cc2)nc1C#N | inconclusive [activator, partial curve] | 
Cc1[nH]n(-c2ccccc2)c(=O)c1-c1cccc(Cl)c1 | inconclusive [activator, single point] | 
N#C/C(=C\c1ccccc1[N+](=O)[O-])c1nc(C2CC2)cs1 | active: 14.1 µM | 
O=C(O)c1ccc2c(c1)C(=O)/C(=C\c1ccco1)C2=O |  | inactive: 12.8%
O=C(c1ccc(F)cc1)C1CCN(C(=S)Nc2ccccc2Cl)CC1 | inconclusive [activator, full curve, poor fit] | 
Clc1ccc(SCc2cc(N3CCOCC3)nc(-c3ccccn3)n2)cc1 |  | inactive: -10.2%
O=C(NNC(=S)Nc1ccc(Br)cc1Cl)c1ccncc1 | inconclusive [activator, single point] | 
COC(=O)c1ccc(NC(=O)CSc2nccn2Cc2ccc(Cl)cc2)cc1 | inconclusive [activator, full curve, poor fit] | 
Cc1ccc(-c2csc(=S)[nH]2)cc1 | inconclusive [activator, partial curve] | 
CCCCNC(=O)c1nc(C2CCN(S(=O)(=O)c3c(OC)cccc3OC)CC2)oc1-c1ccccc1 |  | inactive: 16%
Cc1ccc(-n2nnnc2-c2cnc(N3CCCC3)nc2C(F)(F)F)cc1 | inconclusive [activator, single point] | 
COc1ccc(C=C2SC(=S)NC2=O)c(OC)c1OC | inconclusive [activator, single point] | 
COc1ccc(N2CCN(C(=O)CCc3nnc4n(C)c(=O)c5sccc5n34)CC2)cc1 | inconclusive [activator, single point] | 
Cc1[nH]c(-c2ccc(F)cc2)cc1C(=O)N1CCN(c2ccccc2F)CC1 | inconclusive [activator, single point] | 
CCCC(=O)Nc1nc2c(s1)CC(C(C)(C)C)CC2 (stereo not given) |  | inactive: 7.3%
Cc1cccc(NC(=O)c2ccc(COc3ccccc3)o2)n1 | inconclusive [activator, single point] | 
O=C(/C=C/c1ccco1)OCn1nnc2ccccc2c1=O | inconclusive [activator, partial curve] | 

Compound | Potency | growth rescue (activation)
CC(C)c1ccc2[nH]c(O)c(N=NC(=S)NCCc3ccccc3)c2c1 | inconclusive [activator, partial curve] | 
C/C(=N\NC(=S)NC1CCCCC1)c1cccs1 | inconclusive [activator, single point] | 
O=C(Nc1ccc(F)cc1)c1ccc2ncsc2c1 | active: 25.1 µM | 
Clc1cccc(CSc2ncnc3c2ncn3C2CCCCO2)c1 (stereo not given) | inconclusive [activator, single point] | 
CCCC(=O)NC(C)c1nc(-c2ccc(C)cc2)no1 (stereo not given) | inconclusive [activator, partial curve, poor fit] | 
O=C(c1ccccc1Br)N(Cc1ccccc1)c1ccccc1 | inconclusive [activator, single point] | 
Clc1ccc(OCCn2cnc(Cl)c2Cl)cc1 | active: 11.2 µM | 
CNC(=O)[C@H]1O[C@@H](n2cnc3c(NCc4cccc(I)c4)nc(Cl)nc32)[C@H](O)[C@@H]1O | inconclusive [activator, partial curve] | 
COc1ccc(CCNC(=O)c2oc3ccccc3c2C)cc1 |  | inactive: 37.7%
O=c1ccn(C2CCCO2)c(=O)[nH]1 (stereo not given) | inconclusive [activator, partial curve] | 
Cc1ccc(C)c(NC(=O)N2CCc3ccccc3C2)c1 | active: 20 µM | 
Cc1cc(/C=N/NC(N)=S)c(C)n1-c1cccc(Cl)c1 |  | inactive: 2.44% [at 0.397 µM]
CC(C)(C)OC(=O)N1CCC(c2c(C(=O)N3CCN(c4ccccc4F)CC3)cnn2C(C)(C)C)CC1 | inconclusive [activator, partial curve, poor fit] | 
COC(=O)c1cc2sc(C)cc2n1Cc1nc(-c2cccc(Br)c2)oc1C |  | inactive: 14.5%
O=C(COC(=O)c1nc(Cl)ccc1Cl)c1ccccc1Cl | inconclusive [activator, partial curve] | 
Cc1ccc(C(=O)N2CCN(S(=O)(=O)c3ccc(C(C)C)cc3)CC2)s1 | inconclusive [activator, single point] | 
N#Cc1ccc(NC(=O)c2sc3cc(C(F)(F)F)cnc3c2-c2cccs2)cc1 |  | inactive: 10.1%
Cc1ccc(C)c(OCc2cc(C(=O)N3C[C@@H](C)O[C@@H](C)C3)no2)c1 | inconclusive [activator, partial curve] | 
Cc1cccc(-c2nc3c4ccccc4n(CC(=O)Nc4cccc(F)c4)c(=O)n3n2)c1 | inconclusive [activator, partial curve] | 
CCC(=O)C1=C(c2cccc([N+](=O)[O-])c2)N(C(=O)CC)n2c(nnc2C2CCCCC2)S1 |  | inactive: 23.9%
COC(=O)c1ccc2nc(-c3cccc(Br)c3)c(Cc3ccsc3)n2c1 | inconclusive [activator, partial curve] | 
Cc1ccc(CN2C(=O)C(C)Oc3ccccc32)cc1 (stereo not given) | inconclusive [activator, partial curve] | 
